In patent publication US20220259330A1 (SUNSHINE GUOJIAN PHARMACEUTICAL SHANGHAI, published 2022):
Where a chain is given by its changes, count along the chain named. Names and notes keep the numbering of the source. Blank lines part the entries; values can stand above or below the binder they belong to.

Legend:
LAG3-ECD-His = target: T1, LAG3-ECD-His (human, UniProt P18627 23-450); test: ELISA, plate coated with LAG3-ECD-His
T1 construct: extracellular domain; Bought; not shown: polyhistidine tag
T1 sequence (looked up): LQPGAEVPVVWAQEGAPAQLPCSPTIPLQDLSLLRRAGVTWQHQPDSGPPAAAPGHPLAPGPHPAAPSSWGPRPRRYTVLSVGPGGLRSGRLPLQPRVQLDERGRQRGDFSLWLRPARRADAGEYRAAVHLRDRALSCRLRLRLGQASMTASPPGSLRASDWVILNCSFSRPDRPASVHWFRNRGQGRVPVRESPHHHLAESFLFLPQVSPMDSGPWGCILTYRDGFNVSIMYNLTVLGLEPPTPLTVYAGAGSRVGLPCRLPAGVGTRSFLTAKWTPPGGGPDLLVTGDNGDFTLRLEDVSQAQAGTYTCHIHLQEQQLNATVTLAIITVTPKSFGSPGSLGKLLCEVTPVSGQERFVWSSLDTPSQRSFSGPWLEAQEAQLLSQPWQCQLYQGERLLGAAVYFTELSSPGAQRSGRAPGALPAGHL

PD1-ECD-His = target: T2, PD1-ECD-His (human, UniProt Q15116 partial chain); test: ELISA, plate coated with PD1-ECD-His
T2 construct: extracellular domain; Bought; also called recombinant protein of the extracellular segment of human PD-1 with a polyhistidine tag (Sino Biological 10377-H08H); not shown: polyhistidine tag

VEGF165-His [1] = target: T3, VEGF165-His (human, UniProt P15692-4 27-191); test: ELISA, plate coated with VEGF165-His
T3 construct: also called Human VEGF165 with a 6*His tag
T3 sequence: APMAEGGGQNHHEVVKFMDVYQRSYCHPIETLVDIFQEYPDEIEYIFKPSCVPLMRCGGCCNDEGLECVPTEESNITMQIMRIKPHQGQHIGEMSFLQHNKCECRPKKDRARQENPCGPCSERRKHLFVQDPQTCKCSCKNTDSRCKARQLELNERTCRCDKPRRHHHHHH

[2] = target: T4, recombinant VEGF165 (Acrobiosystems, Cat. No. VE5-H4210) (UniProt P15692-4 27-191); test: cell-based or functional assay
T4 sequence (looked up): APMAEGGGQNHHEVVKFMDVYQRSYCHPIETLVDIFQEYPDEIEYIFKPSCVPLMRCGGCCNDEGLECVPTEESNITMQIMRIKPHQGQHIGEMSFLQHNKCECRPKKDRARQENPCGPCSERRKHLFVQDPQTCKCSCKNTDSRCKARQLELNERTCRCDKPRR

PD1-His [3] = target: T5, PD1-His (human, UniProt Q15116 partial chain); test: ELISA, plate coated with PD1-His
T5 construct: extracellular domain; In-house protein; also called extracellular domain protein of human PD-1 with a 6*His tag

PD1-His [4] = target: T5, PD1-His; test: SPR, Biacore 8K, antibody captured on Protein A/G chip, PD1-His injected
VEGF165-His [5] = target: T3, VEGF165-His; test: SPR, Biacore 8K, antibody captured on Protein A/G chip, VEGF165-His injected

Sequence of PD1-ECD-His (Q15116 25-170): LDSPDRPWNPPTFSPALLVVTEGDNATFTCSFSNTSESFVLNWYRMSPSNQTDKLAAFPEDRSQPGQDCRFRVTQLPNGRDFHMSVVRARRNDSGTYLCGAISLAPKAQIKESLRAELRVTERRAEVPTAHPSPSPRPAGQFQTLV
T5 sequence (Q15116 other isoform, or with tags, fused parts or gaps): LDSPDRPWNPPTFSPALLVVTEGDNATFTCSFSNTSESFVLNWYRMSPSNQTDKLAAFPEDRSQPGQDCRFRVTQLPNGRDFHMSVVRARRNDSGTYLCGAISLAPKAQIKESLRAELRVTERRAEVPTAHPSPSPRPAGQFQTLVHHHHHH

B1: 609-Fab-5E7-IgG4 (bispecific antibody)
heavy: EVKLVESGGGLVQPGGSLRLSCAASGFAFSSYDMSWVRQAPGKRLEWVATISGGGRYTYYPDTVKGRFTISRDNAKNSHYLQMNSLRAEDTAVYFCASPYGGYFDVWGQGTLVTVSSASTKGPSVFPLAPCSRSTSESTAALGCLVKDYFPEPVTVSWNSGALTSGVHTFPAVLQSSGLYSLSSVVTVPSSSLGTKTYTCNVDHKPSNTKVDKRVGGGGSGGGGSGGGGSEVQLVESGGGLVKPGGSLRLSCAASGFTFSDDYMAWFRQAPGKRLEWVASISHGGDYIYYADNLKGRFTISRDNAKNSLYLQMNSLRAEDTAVYFCSRDRRSIDYWGQGTLVTVSSASTKGPSVFPLAPCSRSTSESTAALGCLVKDYFPEPVTVSWNSGALTSGVHTFPAVLQSSGLYSLSSVVTVPSSSLGTKTYTCNVDHKPSNTKVDKRV[human IgG4 Fc with S228P (EU numbers) skipped]
light: DIQMTQSPSSLSASVGDRVTITCRASQDISNYLSWYQQKPGKTIKLLIYYTSRLHSGVPSRFSGSGSGTDYTFTISSLQPEDIATYFCQQGKTLPYTFGQGTKVEIKRTVAAPSVFIFPPSDEQLKSGTASVVCLLNNFYPREAKVQWKVDNALQSGNSQESVTEQDSKDSTYSLSSTLTLSKADYEKHKVYACEVTHQGLSSPVTKSFNRGEC
- EC50 (LAG3-ECD-His): 0.208 nM
- EC50 (PD1-ECD-His): 0.161 nM

B3: 609-Fab-Pertuzumab-IgG4 (bispecific antibody)
heavy: EVKLVESGGGLVQPGGSLRLSCAASGFAFSSYDMSWVRQAPGKRLEWVATISGGGRYTYYPDTVKGRFTISRDNAKNSHYLQMNSLRAEDTAVYFCASPYGGYFDVWGQGTLVTVSSASTKGPSVFPLAPCSRSTSESTAALGCLVKDYFPEPVTVSWNSGALTSGVHTFPAVLQSSGLYSLSSVVTVPSSSLGTKTYTCNVDHKPSNTKVDKRVGGGGSGGGGSGGGGSEVQLVESGGGLVQPGGSLRLSCAASGFTFTDYTMDWVRQAPGKGLEWVADVNPNSGGSIYNQRFKGRFTLSVDRSKNTLYLQMNSLRAEDTAVYYCARNLGPSFYFDYWGQGTLVTVSSASTKGPSVFPLAPCSRSTSESTAALGCLVKDYFPEPVTVSWNSGALTSGVHTFPAVLQSSGLYSLSSVVTVPSSSLGTKTYTCNVDHKPSNTKVDKRV[human IgG4 Fc with S228P (EU numbers) skipped]
light: DIQMTQSPSSLSASVGDRVTITCKASQDVSIGVAWYQQKPGKAPKLLIYSASYRYTGVPSRFSGSGSGTDFTLTISSLQPEDFATYYCQQYYIYPYTFGQGTKVEIKRTVAAPSVFIFPPSDEQLKSGTASVVCLLNNFYPREAKVQWKVDNALQSGNSQESVTEQDSKDSTYSLSSTLTLSKADYEKHKVYACEVTHQGLSSPVTKSFNRGEC
- EC50 (PD1-ECD-His): 0.12 nM

B4: 20-Fab-601-IgG4-V94L (bispecific antibody)
heavy: EVQLVESGGGLVQPGGSLRLSCAASGFVFSNYDMSWVRQAPGKRLEWVATISGGGGYTYYSDSVKGRFTISRDNAKNSLYLQMNSLRAEDTAVYYCASPYGHYGFEYWGQGTLVTVSSASTKGPSVFPLAPCSRSTSESTAALGCLVKDYFPEPVTVSWNSGALTSGVHTFPAVLQSSGLYSLSSVVTVPSSSLGTKTYTCNVDHKPSNTKVDKRVGGGGSGGGGSGGGGSEVQLVESGGGLVQPGGSLRLSCAASGYTFTNYGMNWVRQAPGKGLEWVGWINTYTGEPTYAADFKRRFTFSLDTSKSTAYLQMNSLRAEDTAVYYCAKYPHYYGSSHWYFDVWGQGTLVTVSSASTKGPSVFPLAPCSRSTSESTAALGCLVKDYFPEPVTVSWNSGALTSGVHTFPAVLQSSGLYSLSSVVTVPSSSLGTKTYTCNVDHKPSNTKVDKRV[human IgG4 Fc with S228P (EU numbers) skipped]
light: DIQMTQSPSSLSASVGDRVTITCSASQDISNYLNWYQQKPGKAPKVLIYFTSSLHSGVPSRFSGSGSGTDFTLTISSLQPEDFATYYCQQYSTLPWTFGQGTKVEIKRTVAAPSVFIFPPSDEQLKSGTASVVCLLNNFYPREAKVQWKVDNALQSGNSQESVTEQDSKDSTYSLSSTLTLSKADYEKHKVYACEVTHQGLSSPVTKSFNRGEC
- EC50 (VEGF165-His [1]): 0.0586 nM
- IC50, inhibition of VEGF165-induced HUVEC proliferation (CCK-8) [2]: 9.04 nM
- EC50 (PD1-His [3]): 0.477 nM
- Kd (PD1-His [4]): 0.885 nM
- koff (PD1-His [4]): 6.66e-05 s⁻¹
- kon (PD1-His [4]): 75200 M⁻¹ s⁻¹
- Kd (VEGF165-His [5]): 0.00926 nM
- koff (VEGF165-His [5]): 1.67e-05 s⁻¹
- kon (VEGF165-His [5]): 1.81e+06 M⁻¹ s⁻¹

B5: 20-Fab-0313-IgG4-V94L (bispecific antibody)
heavy: B4 heavy with T259D, N262H, H332Y, S336T
light: B4 light
- IC50, inhibition of VEGF165-induced HUVEC proliferation (CCK-8) [2]: 1.63 nM

Further lines, results first:

- EC50 (LAG3-ECD-His): 0.153 nM
- EC50 (PD1-ECD-His): 0.814 nM
B2: 5E7-Fab-609-IgG4 (bispecific antibody)
heavy: EVQLVESGGGLVKPGGSLRLSCAASGFTFSDDYMAWFRQAPGKRLEWVASISHGGDYIYYADNLKGRFTISRDNAKNSLYLQMNSLRAEDTAVYFCSRDRRSIDYWGQGTLVTVSSASTKGPSVFPLAPCSRSTSESTAALGCLVKDYFPEPVTVSWNSGALTSGVHTFPAVLQSSGLYSLSSVVTVPSSSLGTKTYTCNVDHKPSNTKVDKRVGGGGSGGGGSGGGGS[about 450 residues with a human IgG4 Fc skipped]
light: B1 light

- EC50 (VEGF165-His [1]): 0.0389 nM
- IC50, inhibition of VEGF165-induced HUVEC proliferation (CCK-8) [2]: 3.84 nM
- EC50 (PD1-His [3]): 1.77 nM
B6: 601-Fab-20-IgG4-V94L (bispecific antibody)
heavy: EVQLVESGGGLVQPGGSLRLSCAASGYTFTNYGMNWVRQAPGKGLEWVGWINTYTGEPTYAADFKRRFTFSLDTSKSTAYLQMNSLRAEDTAVYYCAKYPHYYGSSHWYFDVWGQGTLVTVSSASTKGPSVFPLAPCSRSTSESTAALGCLVKDYFPEPVTVSWNSGALTSGVHTFPAVLQSSGLYSLSSVVTVPSSSLGTKTYTCNVDHKPSNTKVDKRVGGGGSGGGGSGGGGSEVQLVESGGGLVQPGGSLRLSCAASGFVFSNYDMSWVRQAPGKRLEWVATISGGGGYTYYSDSVKGRFTISRDNAKNSLYLQMNSLRAEDTAVYYCASPYGHYGFEYWGQGTLVTVSSASTKGPSVFPLAPCSRSTSESTAALGCLVKDYFPEPVTVSWNSGALTSGVHTFPAVLQSSGLYSLSSVVTVPSSSLGTKTYTCNVDHKPSNTKVDKRV[human IgG4 Fc with S228P (EU numbers) skipped]
light: B4 light
